Laboratory results reported in the supplement of paper PMC11417369.
The list shows a part of the results.

What follows are sequences tested on PF3D7_0420300 AP2 domain 1 (GST-tagged) (assay: gcPBM binding intensity (ln(normalized median fluorescence intensity)); higher = stronger DNA binding).
How it was run: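 Using an Agilent 4 × 180k array, primer-extended double-stranded 36-bp intergenic genomic probes and negative controls were exposed for 1 h to GST-fused P. falciparum DNA-binding domains expressed in E. coli. Binding was carried out in 1× PBS with 1% milk, 0.2 mg/ml BSA, 0.5% salmon testes DNA and 0.03% Triton X-100, and protein was detected with Alexa488 anti-GST antibody and a 488 nm scan. Binding intensity is the highest Masliner-normalised natural-log median intensity across replicate spots of either probe orientation.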

| Sequence | gcPBM binding intensity (ln) |
| --- | --- |
| AAAAAAAAGGAAATAACACACATGTATATATTTATA [CACACA_site1606] | 9.44 |
| GTACACATATATATATATATATATATATATATATAT [CACACA_negctrl_site800] | 9.25 |
| TTTTTTTTTTTTTTTTGTACTCATACATACTATTAT [XGTACX_site989] | 8.85 |
| TAATTTTCATGTTCATGTACTTAAATATAAGGTAAA [XGTACX_site3284] | 8.89 |
| TGCCTTATTAAAAGAATTACACATATTTAATCGAAA [GTGCAC_negctrl_site153] | 8.89 |
| ATTCATAACAAAAAAAGTACTCAAAATAATAATAAA [XGTACX_site6079] | 9.22 |
| TATTAAAAAATTATATGTACACATTTGTTATATACA [XGTACX_site2232] | 9.05 |
| ATAAAAAAATAAATAACACACAAAATTACACGAAAA [CACACA_site3620] | 9.95 |
| AATTAAAGGAATTACAACTTTGCAAGCGCAACATAA [CACACA_negctrl_site1411] | 9.12 |
| TTCTTTATATATGTTCGTACATATTATTATAATACA [XGTACX_site1549] | 9.38 |
| TATGTCCATATTTCCACACACATATTATTTTTATAT [CACACA_site3798] | 9.8 |
| GATTCATTTCGTAATACACACAACAAATATTTCAAA [CACACA_site1772] | 9.47 |
| AATGTAAATAAGTGTACACATATATAATACATACAT [CACACA_site4938] | 9.56 |
| TACCTTATATTATATACACACATATAATATAATATA [CACACA_site1328] | 9.41 |
| ATTCAATAAACGTATTGTACAAAAGAACGATATATT [XGTACX_site2533] | 9.32 |
| TATTGGATCACACAAAAATGTATAAATAAATAGAAA [TGCATGCA_negctrl_site490] | 9.16 |
| TTATGTTGCGAGTTCTTAAGATATAAAAAATTCTTC [GTGCAC_negctrl_site45] | 8.95 |
| ATCATAACTTGATACGCACACGTTATATAAATAAAA [CACACA_site4955] | 9.01 |
| TGAGAATAAAAAAAAGGGATTATTAGATTTCTCCTT [TGCATGCA_negctrl_site326] | 9.03 |
| AAGACAAATTGTGACACACACAAAAAAAAAAAAAAA [CACACA_site3727] | 9.32 |
| AAAAAAATAAGGTGCACACAAAAAAAAAAAAAAAAA [CACACA_site812] | 9.23 |
| TAAAATAATATTTATGTGCACATATAATTATTAATT | 9.08 |

| Sequence | gcPBM binding intensity (ln) |
| --- | --- |
| AGAAAAAACAAAAGAGAAATGAAAAAAAAAAAAAAA [XGTACX_negctrl_site482] | 8.87 |
| TTTGTGCTTATCCTAACACACACAACATATAAGAAA [CACACA_site9091] | 9.49 |
| ATATATATTTTTATAACACACAATGATGTACATTAC [CACACA_site1076] | 9.4 |
| TGTGTAGCTAGGGGGTTGCTAATTTTTGTTTTGACC [CACACA_negctrl_site634] | 9.72 |
| TTATATATACCATAATGTACTCTATTATATAAAAAA [XGTACX_site7464] | 8.92 |
| GTCTCCTTTATTTTTGGTACAGATAAGATAAAAGGA [XGTACX_site1591] | 8.97 |
| ATTATCAAAAAAAAAAAAAAAAAAAAAAAAAAAAAA [CACACA_negctrl_site1118] | 8.51 |
| GTGTTCATATATAGCCGTACATATGTCTTATGAACG [XGTACX_site5647] | 9.08 |
| AATCAAAATATATCTACACACATTTAAGTAACCCAT [CACACA_site5846] | 9.69 |
| TATAACATTATTTTGTGTACACATTCGGTTATATTA [XGTACX_site6310] | 9.51 |
| ATATAGATCTATAATACACACTTATGAAATGTCTAA [CACACA_site6946] | 9.38 |
| TTGTTTCCGATGAAAGAAAGGAAATTATAATATATC [GTGCAC_negctrl_site516] | 8.99 |
| ACAAAAAAAAAAAAAATACACACACATAAAAAAAAA [TGCATGCA_negctrl_site333] | 9.72 |
| ACAAAATATTTTTCTTCACACATCCATTCAACATTT [CACACA_site5886] | 9.44 |
| AATCAAAACATTAAAAAGAAAAAATATATATATATA [CACACA_negctrl_site366] | 9.03 |
| TATATATATATATATATTAATAATTAATATAAAAGA [XGTACX_negctrl_site32] | 9.19 |
| CCATTCAAATTTCGCACACACATACAAAAAAAAAAA [CACACA_site3093] | 9.56 |
| TATAAATGATTAATTTGTACATATTTTACTTAATTG [XGTACX_site5271] | 9.16 |
| TTGATGATATCATTTTGTACTTATACGTATTTAAAA [XGTACX_site148] | 9.03 |
| TAAATAAATAAATATATATATATATATATATATATA [XGTACX_negctrl_site70] | 8.94 |
| GATTCCTTTAACCCTGCACACATACATACATTTATA [CACACA_site9308] | 10.1 |
| TAATAATATAATAATACACACTCATTATATATATAA [CACACA_site6045] | 9.38 |
